Results on 76 compounds are retold here after the supplement of paper PMC8183993.

Several values for one entry are separate records, joined by “and”; a condition that tells them apart may be missing. Equal entries are not always repeated. Structures can show the parent of a compound that is named as a salt. ± gives the standard deviation of the averaged measurements. In all, about 3,200 compounds were measured (“nuclei count (viability) relative to DMSO”: median about 99, lowest 2% from about 16 on). Some of the results follow.

The test has as its system U2OS. Nature of the test: nuclei count (viability) relative to DMSO (% of DMSO); higher = more viable cells. Conditions: 10 µM; 24 h. As for the experimental part:
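Primary image-based screen in U2OS cells: compounds at 10 uM for 24 h, then a 1 h o-propargyl-puromycin (OPP) pulse, click labelling, and high-throughput microscopy. Mean cytoplasmic OPP intensity and nuclei count were normalised to DMSO wells within each plate (DMSO = 100) and averaged over triplicate plates.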
As for `Nc1ncnc2c1nc(Br)n2[C@@H]1O[C@@H]2COP(=O)(O)O[C@H]2[C@H]1O` [8-Bromo-cAMP, sodium salt], the nuclei count stood at 97.4.
With `CCCCC1C(=O)N(c2ccccc2)N(c2ccccc2)C1=O` [Phenylbutazone] the figure was 104; with `COc1cc2ncnc(Nc3ccc(F)c(Cl)c3)c2cc1NC(=O)/C=C/CN1CCCCC1`, 87.7 and 83.3.
Turning to `Nc1nccc(-c2ccc3noc(-c4ccc(Cl)cc4)c3c2)n1` [PIM 1 Inhibitor 2], the nuclei count was 97.2.
With `CC1=CC(=O)c2ccccc2C1=O` [Menadione] the figure was 54.1.
On to `CC(=O)/N=c1/sc(S(N)(=O)=O)nn1C` [Methazolamide], for which the nuclei count stood at 104.
With `N=C(N)N1CCc2ccccc2C1` [Debrisoquin sulfate] the figure was 104.
With `Cc1ccc(C(=O)N(CCCN)[C@@H](c2nc3cc(Cl)ccc3c(=O)n2Cc2ccccc2)C(C)C)cc1` the figure was 9.23; with `CCCc1nc2c(C)cc(-c3nc4ccccc4n3C)cc2n1Cc1ccc(-c2ccccc2C(=O)O)cc1` [Telmisartan], 98.3; with `CCCCOC(=O)c1ccc(O)cc1` [Butylparaben], 93.8.
For `CNCCCCOc1ccccc1Cc1ccccc1` [Bifemelane hydrochloride], the nuclei count was determined as 99.7.
For `COCCCOc1cc(C[C@@H](C[C@H](N)[C@@H](O)C[C@H](C(=O)NCC(C)(C)C(N)=O)C(C)C)C(C)C)ccc1OC` [Aliskiren hemifumarate], the nuclei count turned out to be 103.
`O=C(O)Cc1cc(I)c(Oc2ccc(O)c(I)c2)c(I)c1` [Tiratricol, 3,3',5-triiodothyroacetic acid] returned a nuclei count of 117.
With `Cc1cc(Nc2ncc(Cl)c(Nc3ccccc3S(=O)(=O)C(C)C)n2)c(OC(C)C)cc1C1CCNCC1` [Ceritinib (LDK378)] the figure was 14.7; with `COCCCOc1ccnc(C[S+]([O-])c2nc3ccccc3[nH]2)c1C` (stereo unspecified) [Rabeprazole Sodium salt], 105.
The figure for `C[C@@H](Oc1cc(-c2cnn(C3CCNCC3)c2)cnc1N)c1c(Cl)ccc(F)c1Cl` is 39.6; for `O=C(CCCCC(=O)Nc1c(I)cc(I)c(C(=O)O)c1I)Nc1c(I)cc(I)c(C(=O)O)c1I` [Iodipamide] it is 108.
The figure for `CC(C)C1C2CCC(C2)C1N` (stereo unspecified) is 104; for `CO[C@@H]1[C@H](O)[C@@H](CO)O[C@H]1n1cnc2c(NC3CCCCC3)ncnc21` it is 102; for `CNCC[C@@H](Oc1ccccc1C)c1ccccc1` [Tomoxetine hydrochloride] it is 102 ± 3.3.
In turn, `C[C@@H]1O[C@@H](O[C@H]2[C@H](Oc3cc(O)c4c(c3)O[C@H](c3ccc(O)cc3)CC4=O)O[C@H](CO)[C@@H](O)[C@@H]2O)[C@H](O)[C@H](O)[C@H]1O` [Naringin (Naringoside)] returned a nuclei count of 118.
For `Cn1cc(C2=C(c3cn(CCCSC(=N)N)c4ccccc34)C(=O)NC2=O)c2ccccc21` [Ro 31-8220 mesylate], the nuclei count was determined as 10.6.
The figure for `Cn1cc(C2=C(c3cn(CCCSC(=N)N)c4ccccc34)C(=O)NC2=O)c2ccccc21` [Ro 31-8220 Mesylate] is 29.7.
With `Nc1ccccc1NC(=O)CCCCCCC(=O)Nc1ccccc1` the figure was 84.1; with `N[C@@H](CC(=O)N1CCn2c(nnc2C(F)(F)F)C1)Cc1cc(F)c(F)cc1F` [Sitagliptin phosphate monohydrate], 101.
As for `Cn1cc(/C=C/C(=O)c2cccc(F)c2)cc1/C=C/C(=O)NO`, the nuclei count came to 92.3.
With `N=C(N=C(N)N)N1CCOCC1` [Moroxidine hydrochloride] the figure was 102; with `CC(=O)OCC(=O)[C@@]12OC3(CCCC3)O[C@@H]1C[C@H]1[C@@H]3CCC4=CC(=O)C=C[C@]4(C)[C@@]3(F)[C@@H](O)C[C@@]12C` [Amcinonide], 105.
`COc1nc(C)cnc1NS(=O)(=O)c1cccnc1-c1ccc(-c2nnco2)cc1` [Zibotentan (ZD4054)]: the nuclei count was determined as 107.
`CC(=O)Nc1ccc(OCC(O)CNC(C)C)cc1` (stereo unspecified) [Practolol] came in with a nuclei count of 104.
With `CO/N=C(\C(=O)N[C@@H]1C(=O)N2C(C(=O)O)=C(CSC(=O)c3ccco3)CS[C@H]12)c1csc(N)n1` [Ceftiofur HCl] the figure was 102.
With `N[C@@H]1CCN(O)C1=O` the figure was 106; with `CN1[C@@H]2CC[C@H]1C[C@@H](OC(c1ccccc1)c1ccccc1)C2` [Benztropine mesylate], 107 ± 5.7.
In turn, `O=C1NN(C(=O)Nc2ccc(Br)cc2)[C@@H](c2ccccc2)[C@@H]1c1ccccc1` showed a nuclei count of 94.8.
Compound `C[C@@H]1O[C@@H](OC[C@H]2O[C@@H](Oc3c(-c4ccc(O)c(O)c4)oc4cc(O)cc(O)c4c3=O)[C@H](O)[C@@H](O)[C@@H]2O)[C@H](O)[C@H](O)[C@H]1O` [Rutin (Rutoside)] returned a nuclei count of 102.
The figure for `COc1ccnc2[nH]cc(C(=O)C(=O)N3CCN(C(=O)c4ccccc4)C[C@H]3C)c12` is 98.8; for `CCCC(=O)Nc1ccc(OCC(O)CNC(C)C)c(C(C)=O)c1` (stereo unspecified) [Acebutolol hydrochloride] it is 90.8.
As for `CC(C)(C)OC(=O)N[C@H]1CCCCC/C=C\[C@@H]2C[C@@]2(C(=O)NS(=O)(=O)C2CC2)NC(=O)[C@@H]2C[C@@H](OC(=O)N3Cc4cccc(F)c4C3)CN2C1=O` [Danoprevir], the nuclei count was 100.
With `CC1(C)C(=O)N(CCN2CCC(C(=O)c3ccc(F)cc3)CC2)c2ccccc21` the figure was 97.8.
Consider `NC(=O)Nc1sc(-c2ccc(F)cc2)cc1C(N)=O`, for which the nuclei count is 47 ± 0.38.
The figure for `CCN(CC)CC1CCCCN1CC(=O)N1c2ccccc2C(=O)Nc2cccnc21` (stereo unspecified) is 95.9; for `C[C@H](CCC(=O)O)[C@H]1CC[C@H]2[C@@H]3C[C@H](O)[C@@H]4C[C@H](O)CC[C@]4(C)[C@H]3CC[C@]12C` [Hyodeoxycholic acid (HDCA)] it is 104.
`O=C(Nc1ccccc1)OCC(CN1CCCCC1)OC(=O)Nc1ccccc1` (stereo unspecified) [Diperodon hydrochloride] returned a nuclei count of 101.
With `CCN1CCN(c2ccc(Nc3cc(N(C)C(=O)Nc4c(Cl)c(OC)cc(OC)c4Cl)ncn3)cc2)CC1` the figure was 96.4.
`Nc1nc(=O)[nH]cc1F` [Flucytosine] yielded a nuclei count of 105.
With `Clc1cc(Cl)c(OCC#CI)cc1Cl` [Haloprogin] the figure was 35.9; with `Oc1cc(O)cc(/C=C/c2ccc(O)c(O)c2)c1` [Piceatannol], 90.6 ± 9.5; with `Cc1cc(Nc2cc(CN3CCOCC3)c3nc(C)c(Cc4ccc(Cl)cc4F)n3n2)n[nH]1`, 42.8.
With `Nc1nnc(-c2cccc(Cl)c2Cl)c(N)n1` [Lamotrigine] the figure was 105; with `CC[C@@]1(O)C(=O)OCc2c1cc1n(c2=O)Cc2cc3c(CN(C)C)c(O)ccc3nc2-1` [Topotecan], 45.7; with `O=C1c2ccccc2-c2nc3nonc3nc21`, 44.
The figure for `CCCCCS(=O)(=O)CCCCCCCCCCn1c(-c2ccc(O)cc2)c(C)c2cc(O)ccc21` is 105; for `NC(C(=O)O)c1ccc(C(=O)O)c(C(=O)O)c1` (racemic) it is 102 and 111; for `C=C1[C@H](CO)[C@@H](O)C[C@@H]1n1cnc2c(=O)[nH]c(N)nc21` [Entecavir hydrate] it is 101.
For `CC(=O)O[C@]1(C(C)=O)CC[C@H]2[C@@H]3C=C(C)C4=CC(=O)CC[C@]4(C)[C@H]3CC[C@@]21C` [Megestrol Acetate], the nuclei count turned out to be 108.
`CC(=O)O[C@]1(C(C)=O)CC[C@H]2[C@@H]3C=C(C)C4=CC(=O)CC[C@]4(C)[C@H]3CC[C@@]21C` [Megestrol acetate] showed a nuclei count of 106.
Turning to `Cc1cccc(C)c1NC(=O)CN1CCN(CCCC(c2ccc(F)cc2)c2ccc(F)cc2)CC1` [Lidoflazine], the nuclei count came out at 103.
In the case of `CCCC(=O)Nc1cccc(NC(=O)c2ccccc2Br)c1`, the nuclei count is 101.
With `CO[C@H]1C[C@@H]2CC[C@@H](C)[C@@](O)(O2)C(=O)C(=O)N2CCCC[C@H]2C(=O)O[C@H]([C@H](C)C[C@@H]2CC[C@H](n3cnnn3)[C@H](OC)C2)CC(=O)[C@H](C)/C=C(\C)[C@@H](O)[C@@H](OC)C(=O)[C@H](C)C[C@H](C)/C=C/C=C/C=C/1C` [Zotarolimus (ABT-578)] the figure was 84.3.
As to `O=C(c1ccc(Cl)cc1Cl)n1nnc2ccccc21`, the nuclei count was 83.2.
With `COc1cc2ncnc(Nc3ccc(O)c(Br)c3)c2cc1OC` the figure was 98.3 ± 5.4; with `O=C(O)c1ccc(O)c2ncccc12`, 99.5; with `O=C1c2ccccc2CCC1CNCCc1ccc(O)cc1` (stereo unspecified) [HEAT hydrochloride], 76.6.
With `CC(C)(C)OC(=O)Nc1ccc(-c2cc(C(=O)NCCCCCCC(=O)NO)no2)cc1` the figure was 31.
`Cc1nc(C)c(C)nc1C` [Tetramethylpyrazine] registered a nuclei count of 101.
The figure for `Nc1nc(Nc2ccccc2)nc2c1ncn2[C@@H]1O[C@H](CO)[C@@H](O)[C@H]1O` is 101; for `O=C(OCCN1CCCCC1)c1c[nH]c2ccccc12` it is 102; for `Cc1cccc(C)c1NC(=O)C[N+](C)(C)C` it is 106.
With `CC(C)(C)NCC(O)COc1cccc2c1CC(O)C(O)C2` (stereo unspecified) [Nadolol] the figure was 97; with `Cc1ccc(S(=O)(=O)/C=C/C#N)cc1`, 32.5; with `C[C@H](CCC(=O)NCCS(=O)(=O)O)[C@H]1CC[C@H]2[C@@H]3[C@H](O)C[C@@H]4C[C@H](O)CC[C@]4(C)[C@H]3C[C@H](O)[C@]12C` [Taurocholic acid], 101.
`Nc1ccccc1NC(=O)c1ccc(CNc2nccc(-c3cccnc3)n2)cc1` [Mocetinostat (MGCD0103)] returned a nuclei count of 39.2.
Compound `Cc1cccn2c(=O)c(-c3nnn[nH]3)cnc12` [Pemirolast potassium] returned a nuclei count of 104.
With `CC[C@H](C)C(=O)O[C@H]1C[C@H](O)C=C2C=C[C@H](C)[C@H](CC[C@@H](O)C[C@@H](O)CC(=O)O)[C@H]21` [Pravastatin] the figure was 101.
Regarding `CC[C@H](C)C(=O)O[C@H]1C[C@H](O)C=C2C=C[C@H](C)[C@H](CC[C@@H](O)C[C@@H](O)CC(=O)O)[C@H]21` [Pravastatin sodium salt], the nuclei count is 104.
The compound `CC[C@H](C)C(=O)O[C@H]1C[C@H](O)C=C2C=C[C@H](C)[C@H](CC[C@@H](O)C[C@@H](O)CC(=O)O)[C@H]21` [Pravastatin sodium] showed a nuclei count of 102.
